About 7,500 (2.1%) of roughly 360,000 compounds were called active. This list was built around the results that the source calls inconclusive (neither active nor inactive); the mix of calls is not that of the screen. Calls follow the shape of the dose curve; as a rule, active = well fitted cell-killing curve with a large enough effect; inconclusive = small, poorly fitted or top-dose-only effect, or effect the other way, or another doubt; inactive = no such curve, though single readings can be large or run the other way. Potencies of inconclusive entries are left out as doubtful fits.
Test: qHTS for induction of synthetic lethality in tumor cells producing 2HG: qHTS for the HT-1080-IDH1KD cell line;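 as to activity, negative = toxicity: 0% = DMSO wells and -100% = cell-free medium wells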
Settings: HT-1080 IDH1 knockdown viability, ATP luminescence, 48 h; activity, negative = toxicity: at 46.1 µM (top of the series) unless noted
Outline: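 After a 2 h attachment period, IDH1KD HT-1080 cells took pin-transferred compound for 48 h at 37 °C; ATP-based luminescence after 10 min room-temperature reagent incubation reported viability.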
Potency is read from the fitted curve at half-maximal effect; tags tell the direction and shape of the fitted curve.

Row | Compound | Potency | activity, negative = toxicity
1 | Cc1cc(=O)cc(C)n1-c1ccc2c(c1)nc(C)n2-c1ccccc1 | inconclusive [cytotoxic, single point] | –
2 | O=C(Nc1nccs1)c1cc(S(=O)(=O)N2CCOCC2)c(Cl)cc1Cl | inconclusive [cytotoxic, single point] | –
3 | CCOc1ccc(NC(C(=O)Nc2cccc(C(C)=O)c2)c2ccccc2)cc1 (stereo unspecified) | – | inactive: 1.38%
4 | N=c1c2c(n(Cc3ccc(F)cc3)c3c1CCC3)CCC2 | active: 10 µM | –
5 | CCOc1ccc(OCC)c(NC(=O)C2CCCN(c3nc(C)cc(C)n3)C2)c1 (stereo unspecified) | inconclusive [cytotoxic, single point] | –
6 | CC1CCC(C(C)C)C(OC(=O)COC(=O)c2cc(O)ccc2N)C1 (stereo unspecified) | inconclusive [cytotoxic, single point] | –
7 | CCCCSC(=S)NC1CCS(=O)(=O)C1 (stereo unspecified) | inconclusive [cytotoxic, partial curve] | –
8 | O=C(c1cc(O)c(O)c([N+](=O)[O-])c1)c1ccccc1F | inconclusive [cytotoxic, single point] | –
9 | COc1ccc(NC(=O)Nc2nnc(Cc3ccc(F)cc3)s2)cc1 | inconclusive [cytotoxic, single point] | –
10 | CN(CC(=O)Nc1ccc(F)cc1)C(=O)COC(=O)CN1C(=O)NC2(CCCC2)C1=O | – | inconclusive: -1.47% [cytotoxic]
11 | Cc1ccc(C)c2[nH]c(=O)c(CN(CC3CCCO3)C(=O)NC3CCCCC3)cc12 (stereo unspecified) | – | inactive: -14.8%
12 | CC(=NNc1nc2ccccc2o1)c1ncccn1 | active: 1.16 µM | –
13 | O=C(Nc1ccccc1)Nc1ccc(S(=O)(=O)N2CCCCC2)cc1 | inconclusive [cytotoxic, single point] | –
14 | COc1cc(/C=C2/C(=N)N3C=CSC3=NC2=O)ccc1OCCCOc1ccccc1C | inconclusive [cytotoxic, single point] | –
15 | Cc1ccccc1N=Nc1ccc(O)c2ncccc12 | active: 7.31 µM | –
16 | CCOC(=O)c1cc2c(c(CCO)n1)[C@@H](CCO)N(S(=O)(=O)C(C)(C)C)C2 | – | inactive: 12.6%
17 | CCc1nc(NC(C)(C)C)c2cnn(-c3ccccc3)c2n1 | inconclusive [cytotoxic, single point] | –
18 | O=C(CNC(=O)c1ccncc1)N/N=C/c1cc(Br)ccc1OCc1ccccc1 | inconclusive [cytotoxic, single point] | –
19 | CCOC(=O)N1CCN(c2ccc(O)cc2)CC1 | inconclusive [cytotoxic, single point] | –
20 | COc1cc(COc2ccc(S(=O)(=O)N3CCOCC3)cc2[N+](=O)[O-])ccc1OC(F)F | – | inactive: -26%
21 | Cc1sc2c(c1C)C(O)=C(C(=O)Nc1ccccc1)S(=O)(=O)N2C | – | inactive: -9%
22 | O=[N+]([O-])c1ccc(Cl)cc1C=NNc1ccccn1 | inconclusive [rising, partial curve] | –
23 | Cc1ccccc1-c1cc(C(=O)n2cccn2)c2cc(Cl)ccc2n1 | active: 10 µM | –
24 | C=CCn1c(-c2cccnc2)n[nH]c1=S | – | inactive: 15.5%

Row | Compound | Potency | activity, negative = toxicity
25 | COc1cc2c(cc1OC)C(c1ccc(-c3ccccc3Cl)o1)=NCC2 | active: 12.6 µM | –
26 | CC(=O)Nc1ccc(S(=O)(=O)N2CCC(c3nc4ccc(C)cc4[nH]3)CC2)cc1 | inconclusive [cytotoxic, single point] | –
27 | Cc1ccc(NC(=O)CN2C(=O)S/C(=C\c3cc(C)n(C)c3C)C2=O)cc1 | – | inactive: 2.52%
28 | Cc1[nH]c(-c2ccc(F)cc2)cc1C(=O)N1CCN(c2ccccc2F)CC1 | inconclusive [cytotoxic, single point] | –
29 | O=C(O)CCn1cc(/C=C/C(=O)c2ccc(Cl)cc2)c(-c2cccc(Br)c2)n1 | active: 23.1 µM | –
30 | CCOC1=C2CN(S(=O)(=O)c3ccc(C)cc3)C(c3ccc(CC)cc3)CC2N(S(=O)(=O)c2ccc(C)cc2)C(c2ccc(CC)cc2)C1 (stereo unspecified) | – | inactive: 9.38%
31 | CCOC(=O)c1[nH]c2c(c1C)C(=O)CC(c1ccc(OCC)c(OC)c1)C2 (stereo unspecified) | inconclusive [cytotoxic, single point] | –
32 | Cc1cc(C)c2c(=O)n3c(nc2c1)C(Cc1ccc(O)cc1)NC(=O)c1cc2ccccc2cc1-3 (stereo unspecified) | inconclusive [cytotoxic, partial curve] | –
33 | COc1ccc(C=C2SC(=S)NC2=O)c(OC)c1OC | inconclusive [cytotoxic, single point] | –
34 | Cc1ccc(-n2nnnc2-c2cnc(N3CCCC3)nc2C(F)(F)F)cc1 | inconclusive [cytotoxic, single point] | –
35 | COc1ccc2sc(-c3ccc(S(C)(=O)=O)cc3)c(-c3ccc(C(N)=O)cc3)c2c1 | inconclusive [cytotoxic, partial curve] | –
36 | COc1ccc(S(=O)(=O)N(CCCN2CCOCC2)Cc2cccc3ccccc23)cc1 | – | inconclusive: -32% [cytotoxic]
37 | O=C(CON=C1c2ccccc2-c2ccccc21)NC12CC3CC(CC(C3)C1)C2 | inconclusive [cytotoxic, single point] | –
38 | C/C(=N\NC(=O)c1c(C)nc2ccccn12)c1ccc(O)cc1O | inconclusive [cytotoxic, full curve] | –
39 | CCCNC(=O)COC(=O)c1ccccc1C(=O)c1ccc(Cl)c([N+](=O)[O-])c1 | active: 5.17 µM | –
40 | OCC1(CCOc2ccccc2)CCN(Cc2ccccc2OC(F)F)CC1 | inconclusive [cytotoxic, single point] | –
41 | C#Cc1ccccc1OCCCN1CCC(C(O)(c2ccccc2)c2ccccc2)CC1 | active: 16.4 µM | –
42 | CCN(CC)S(=O)(=O)c1ccc(O)c(NC(=O)c2cc(-c3cc(OC)c(OC)c(OC)c3)nc3ccccc23)c1 | inconclusive [cytotoxic, single point] | –
43 | Cc1ccc(OCCCCN2CCc3ccccc3C2)c(C)c1 | inconclusive [cytotoxic, single point] | –
44 | Cc1ccc(-n2c(C)cc(C(=O)COC(=O)C3=NNC(=O)CC3)c2C)cc1 | – | inactive: -6.64%
45 | COc1cc(C(=O)Oc2ccccc2/C=N/NC(=O)c2ccc(Cl)cc2Cl)cc(OC)c1OC | inconclusive [cytotoxic, full curve] | –
46 | Cn1c(CCN2CCCC2)nc2cc(NS(=O)(=O)c3ccc(Cl)cc3)ccc21 | inconclusive [cytotoxic, single point] | –
47 | CC1=C(C(=O)N2CCCCCC2)CC(CC(=O)NCc2ccco2)C(=O)N1Cc1ccccc1 (stereo unspecified) | – | inactive: 16.4%
48 | COc1ccc(Br)cc1/C=c1\sc2nc(-c3ccco3)nn2c1=O | – | inactive: 7.67%

Row | Compound | Potency | activity, negative = toxicity
49 | N#C/C(=C\c1ccc(Cl)c([N+](=O)[O-])c1)c1ccccn1 | active: 10.3 µM | –
50 | CCOc1ncccc1C(=O)Nc1ccc(C(=O)Nc2ccc(OC)cc2)cc1 | inconclusive [cytotoxic, single point] | –
51 | CC(=NNC(=S)N1CCN(C2CCCCCC2)CC1)c1ccccn1 | inconclusive [cytotoxic, partial curve, poor fit] | –
52 | C#CCSc1[nH]c(=O)cc(C)c1C#N | – | inconclusive: -2.46% [cytotoxic]
53 | CCC[C@@H]1Cc2ccccc2N1C(C)=O | – | inactive: 7.37%
54 | CCOC(=O)N/N=C\c1ccc([N+](=O)[O-])o1 | inconclusive [cytotoxic, single point] | –
55 | CCOC(=O)c1c(NC(=O)Cc2cccs2)sc(C(=O)NC2CCCCC2)c1C | – | inactive: 7.23%
56 | O=C(N/N=C/c1ccccc1)c1n[nH]c2c1CCCC2 | inconclusive [cytotoxic, single point] | –
57 | O=C1c2cccc3cccc(c23)C(=O)N1CCN1CCN(CC(O)COc2ccc3ccccc3c2)CC1 (stereo unspecified) | inconclusive [cytotoxic, single point] | –
58 | Fc1ccc(/C=N/Nc2nccnc2Cl)cc1 | inconclusive [cytotoxic, single point] | –
59 | Oc1c(Br)cc(Br)cc1/C=N/c1nc2c(s1)CCCC2 | inconclusive [cytotoxic, single point] | –
60 | NC(Cc1ccc(C(F)(F)F)cc1)c1csc(NC(=O)NCCc2ccccc2)n1 (stereo unspecified) | active: 18.4 µM | –
61 | COc1cc(Br)cc(C=Nc2cccc(C(F)(F)F)c2)c1O | inconclusive [cytotoxic, single point] | –
62 | NC(=O)c1ccccc1OCC(=O)N1CCc2ccccc2C1 | – | inactive: -2.82%
63 | Cc1c(C(=O)NCc2ccc([N+](=O)[O-])cc2)sc(=O)n1Cc1ccc(-c2ccccc2)cc1 | – | inactive: -16.9%
64 | CCNC(=O)CC1C(=O)N(c2ccc(F)cc2)C(=S)N1CCc1ccncc1 (stereo unspecified) | – | inactive: 5.33%
65 | CC1(C)Cc2c(ccc3ccccc23)C(c2cc3ccccc3oc2=O)=N1 | inconclusive [cytotoxic, partial curve] | –
66 | COc1ccc(NC(NC(=O)c2ccc(OC)cc2)C(Cl)(Cl)Cl)cc1 (stereo unspecified) | – | inactive: -18.6%
67 | CC(=O)Nc1ccc(S(=O)(=O)N(Cc2ccccc2)c2ccccc2)cc1 | inconclusive [cytotoxic, single point] | –
68 | Cc1ccc(N/N=C/c2ccncc2)cc1 | inconclusive [cytotoxic, partial curve] | –
69 | CC(C)c1ccc2[nH]c(O)c(N=NC(=S)NCCc3ccccc3)c2c1 | inconclusive [cytotoxic, single point] | –
70 | O=C(Nc1ccc2nc3n(c(=O)c2c1)CCCC3)c1cc([N+](=O)[O-])ccc1F | inconclusive [cytotoxic, single point] | –
71 | O=C(CSCc1ccc(Cl)cc1)Nc1cc([N+](=O)[O-])ccc1O | inconclusive [cytotoxic, single point] | –

— PubChem BioAssay AID686971 (National Center for Advancing Translational Sciences (NCATS), 2013)
